These results are taken from the supplement of paper PMC3656093.

± gives the standard deviation of the averaged measurements. In all, about 1,900 compounds were measured (“CD40L-induced NF-kB luciferase activity, plate-corrected, relative to DMSO (0) and IKK inhibitor VII (-100) controls”: median about 0.032, lowest 2% from about -26 on). The list shows a part of the results.

The assay relates to BL2-NFkB-Luc. Put plainly: CD40L-induced NF-kB luciferase activity, plate-corrected, relative to DMSO (0) and IKK inhibitor VII (-100) controls (% normalized activity); higher = more NF-kB reporter activity (less inhibition). The conditions noted are these: 9.4 µM; stimulus: tCD40L 64 ng/ml; 4.5 h. Here is the method: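 BL2 B cells with a stable NF-kB response-element luciferase reporter (BL2-NFkB-Luc), 384-well. Cells were pre-incubated with compound at 9.4 uM for 1 h at 37 C, then stimulated with 64 ng/ml trimerized CD40L for 4.5 h; luciferase was read with Steady-Glo. Signal was normalised per plate in Genedata (median DMSO neutral control = 0, median IKK inhibitor VII at 50 uM = -100) with Assay Median plate-pattern correction; duplicate plates.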
As to `Cn1nc(-c2ccc(Cl)cc2)nc2c(=O)n(C)c(=O)nc1-2`, the “CD40L-induced NF-kB luciferase activity” value is -95.22 ± 0.55. Next, `O=C(O)CCCN1C(=O)NC2NC(=O)NC21` (centres undefined): -1.73 ± 3.4; `CC1(C)CC(O)(CNCc2ccc3c(c2)OCO3)CCO1` (centres undefined): -6.54 ± 2.5; `CCOc1ccc(NC2OC(C)C(O)C(O)C2O)c([N+](=O)[O-])c1` (centres undefined): 4.18 ± 5.1. The value for `Cc1ccc(/C(=C\CN2CCCC2)c2ccccn2)cc1` was -9.06 ± 13. In the case of `O=C1OC(c2ccccc2)=C/C1=C/c1cccs1`, the “CD40L-induced NF-kB luciferase activity” value was 30.9 ± 2.3. Next, `Cc1ccc(S(=O)(=O)NC(=O)Nc2cc(C)ccc2F)cc1`: -7.04 ± 0.65. Next, `O=C(c1ccccc1F)c1cc2c(cc1[N+](=O)[O-])OCCO2`: 4.21 ± 2.1; `O=C1C(Cc2ccccc2)NC(=S)N1c1ccccc1` (centres undefined): 0.565 ± 0.47.

On to `CNCCC=C1c2ccccc2CCc2ccccc21`, for which the “CD40L-induced NF-kB luciferase activity” value is 3.86 ± 3.4. The value for `Cn1c2ccccc2c2cc(/C=C(\NC(=O)c3ccccc3)C(=O)O)ccc21` was 0.0587 ± 0.86; that for `COc1ccc2[nH]c(CN3CCN(CC(C)C)C(CCO)C3)c(C)c2c1` (centres undefined) was -3.64 ± 2.3; that for `CNC[C@H](O)c1cccc(O)c1` was -1.83 ± 3.4. Next, `COc1ccc(CCNC(=O)C(=O)Nc2ccc3c(c2)OCO3)cc1OC`: 0.742 ± 2.8; `CCOc1ccc2oc(-c3ccccc3)c(C(=O)O)c2c1`: 0.687 ± 3.3; `COc1ccc(NC(=O)CC(c2ccccc2)c2ccco2)cc1` (centres undefined): -4.98 ± 9.2. Regarding `COc1cc(OC)c2c(C)c(Cl)c(=O)oc2c1`, the “CD40L-induced NF-kB luciferase activity” value amounted to 19.8 ± 1.7.

On to `O=C(CC1SC(=O)NC1=O)Nc1ccc(Cl)cc1` (centres undefined), for which the “CD40L-induced NF-kB luciferase activity” value came to 2.93 ± 5.1. With `COc1ccc(C(=O)Nc2ccccc2C(=O)NCCCn2ccnc2)cc1`, the “CD40L-induced NF-kB luciferase activity” value is 3.18 ± 2.2.

On to `CC(C)CC(NC(=O)C(NC(=O)OC(C)(C)C)C(C)C)C(=O)NC(CCC(=O)OCc1ccccc1)C(N)=O` (centres undefined), for which the “CD40L-induced NF-kB luciferase activity” value turned out to be 5.49 ± 5.4. Next, `COc1ccc(Br)cc1C(=O)Nc1ccc(C(=O)O)cc1`: -4.22 ± 1.9.

As for `COc1ccc(C2(CCN=Cc3ccc(N(C)C)cc3)CCOC(C)(C)C2)cc1` (centres undefined), the “CD40L-induced NF-kB luciferase activity” value was found to be 3.22 ± 2.5.

`COc1ccc(-c2csc(-c3cccnc3)n2)cc1C`: the “CD40L-induced NF-kB luciferase activity” value turned out to be 54.3 ± 0.95. In the case of `CCC(C)NCCOCCOc1ccc(Cl)c2ccccc12` (centres undefined), the “CD40L-induced NF-kB luciferase activity” value was -3.83 ± 0.8. Next, `CN=C(NC#N)NCCSCc1nc[nH]c1C`: 3.09 ± 3.4. Next, `CCOC(=O)c1cnc2ccccc2c1NCCO`: 0.446 ± 3.2. Take `CCOC(=O)Nc1ccc2c(c1)N(C(=O)CCN1CCOCC1)c1ccccc1S2`: the “CD40L-induced NF-kB luciferase activity” value worked out at 0.116 ± 0.31.

As to `CC1(CC(=O)Nc2ccccc2)NC(=S)N(c2ccccc2)N1` (centres undefined), the “CD40L-induced NF-kB luciferase activity” value stood at 22.4 ± 3. On to `O=C(O)CCn1c(=S)n(CCC(=O)O)c2ccccc21`, for which the “CD40L-induced NF-kB luciferase activity” value worked out at 4.48 ± 1.5. Turning to `CC1=C(C)C(=O)C(CCCCC#CCCCC#CCO)=C(C)C1=O`, the “CD40L-induced NF-kB luciferase activity” value was -9.18 ± 1.8. `C#C[C@]1(O)CC[C@H]2[C@@H]3CCc4cc(OC)ccc4[C@H]3CC[C@@]21C`: the “CD40L-induced NF-kB luciferase activity” value was determined as 0.208 ± 3.1.

With `O=C(c1ccc(F)cc1)[C@@H]1[C@@H](C(=O)c2ccccc2)[C@@]2(C(=O)Nc3ccccc32)[C@H]2c3ccccc3C=CN12`, the “CD40L-induced NF-kB luciferase activity” value was determined as 6.58 ± 1.4. The value for `O=C(O)/C=C/c1cccc(OCc2ccccc2)c1` was 1.54 ± 2.9; that for `CCOCC(=O)Nc1ccccc1C(=O)N1CCOCC1` was -5 ± 1; that for `COc1cc2c(cc1OC)-c1nnc(C)n1C(C)(C)C2` was -0.442 ± 6.8. For the compound `O=C(CN1C(=O)c2ccccc2S1(=O)=O)Nc1ccccc1`, the “CD40L-induced NF-kB luciferase activity” value was -6.73 ± 3.7. As to `O=C(/C=C/c1ccco1)Nc1ccccc1C(=O)O`, the “CD40L-induced NF-kB luciferase activity” value amounted to 1.64 ± 1.8. Regarding `c1coc(-c2nnc3n2C2(CCCC2)Cc2ccccc2-3)c1`, the “CD40L-induced NF-kB luciferase activity” value was 3.3 ± 1.4.

For the compound `O=C1CC(c2ccc(OCCCCCOc3ccc(C4CC(=O)NC4=O)cc3)cc2)C(=O)N1` (centres undefined), the “CD40L-induced NF-kB luciferase activity” value is 1.1 ± 0.16. Regarding `CC(C)CC(=O)NC(NC(=O)CC(C)C)c1cccc([N+](=O)[O-])c1`, the “CD40L-induced NF-kB luciferase activity” value is -3.39 ± 3. As to `O=C(O)Cc1ccc(O)c(F)c1`, the “CD40L-induced NF-kB luciferase activity” value is -1.51 ± 2.2.

As for `O=C(c1ccc([N+](=O)[O-])cc1)N1CCSC1c1ccccc1Cl` (centres undefined), the “CD40L-induced NF-kB luciferase activity” value turned out to be 4.04 ± 5.

`COc1ccc2nc(C)cc(Nc3ccccc3O)c2c1`: the “CD40L-induced NF-kB luciferase activity” value was -3.8 ± 2.1.

Take `CN(C)CCCN1c2ccccc2CCc2ccc(Cl)cc21`: the “CD40L-induced NF-kB luciferase activity” value came to 2.09 ± 1.3.

Consider `O=C(/C=C/c1ccccc1)NC(=O)c1ccccc1O`, for which the “CD40L-induced NF-kB luciferase activity” value was 54 ± 2.5. The value for `Clc1ccccc1CN1CCc2sccc2C1` was 1.03 ± 1.4; that for `C=CCNc1nc2c(c(=O)n(C)c(=O)n2C)n1CC(=C)C` was -20.4 ± 24. The value for `NS(=O)(=O)c1ccc(CCNC(=O)C2CCCN2C(=O)OCc2ccccc2)cc1` (centres undefined) was 2.68 ± 0.16.

For the compound `COc1cc2c(cc1O)CC[C@@H]1[C@@H]2CC[C@]2(C)[C@@H](O)CC[C@@H]12`, the “CD40L-induced NF-kB luciferase activity” value is 1.02 ± 5.1. Next, `COC(=O)C1=C(C)NC(C)=C(C(=O)OC)C1c1ccccc1[N+](=O)[O-]`: -3.05 ± 3.8; `CC1(C(=O)O)CCC(C(=O)NC2CCCCCC2)C1(C)C` (centres undefined): 2.33 ± 3.5; `CC(=O)c1cccc(NC(=O)N[C@@H](CC(C)C)C(=O)O)c1`: -0.327 ± 2.4. As for `O=C(O)Cc1ccccc1Nc1c(Cl)cccc1Cl`, the “CD40L-induced NF-kB luciferase activity” value is -0.787 ± 3.6. The value for `CCNC(=S)N1CCN(CCN2C(=O)c3cccc4cccc(c34)C2=O)CC1` was 63.6 ± 2.8; that for `O=C1OCCN1N=Cc1ccc([N+](=O)[O-])o1` was -0.974 ± 2.2; that for `O=c1[nH]cc(F)c(=O)[nH]1` was 5.81 ± 5. Next, `CCc1cc2c3c(c(=O)oc2cc1O)CCCC3`: 2.85 ± 4.5; `CCCCC[C@H](O)/C=C/[C@@H]1[C@@H](C/C=C\CCCC(=O)O)[C@H]2CO[C@@H]1C2`: 0.508 ± 0.28; `COc1ccc(O)c(C(=O)/C=C/c2cc3ccccc3o2)c1`: 83.3 ± 3.2.
